Data published in PubChem BioAssay AID652104 (National Center for Advancing Translational Sciences (NCATS), 2013).
Hit rate of the full screen: of about 410,000 compounds, about 7,200 (1.8%) were called active. This list was built around the results that the source calls inconclusive (neither active nor inactive); the mix of calls is not that of the screen. Calls follow the shape of the dose curve; as a rule, active = well fitted activation curve with a large enough effect; inconclusive = small, poorly fitted or top-dose-only effect, or another doubt; inactive = no such curve, though single readings can be large or run the other way. Potencies of inconclusive entries are left out as doubtful fits.

Assay: qHTS of TDP-43 Inhibitors; also: nearly all actives have a fitted effect of over 50% in size
Details: TDP-43 expressing yeast growth rescue, BacTiter-Glo, 24 h; series mostly up to 46.1 µM
Procedure, shortened: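 In this qHTS, compounds that restore growth of yeast expressing TDP-43 appear as activators. Cells (OD600=0.02, galactose medium, raffinose-pregrown) are incubated with compound 24 hr at 30 deg C and growth is quantified by BacTiter-Glo.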
Potency is read from the fitted curve at half-maximal effect; tags tell the direction and shape of the fitted curve.

| SMILES | Potency |
| --- | --- |
| Cc1ccccc1-c1nnc(SCC(=O)N2CCCc3ccccc32)o1 | inconclusive [activator, partial curve] |
| COc1ccc(-c2nc(C)c(CCNC(=O)c3cccs3)s2)cc1 | active: 14.1 µM |
| Cn1c(=O)c2cc(NC(=O)NCCc3ccccc3)ccc2n1Cc1ccccc1 | inconclusive [activator, full curve, poor fit] |
| Cc1ccccc1C(=O)Oc1ccc2ccc(O)cc2c1 | active: 17.8 µM |
| Fc1ccccc1NC(=S)NCc1ccc(Cl)cc1 | active: 11.2 µM |
| COc1ccc(N2CCN(C(=O)c3c(C)oc4nc(C)nc(N5CCCC5)c34)CC2)cc1 | inactive |
| COC(=O)c1cc2ccccc2c(-c2c(OC)c(C(=O)OC)cc3ccccc23)c1OC | inconclusive [activator, single point] |
| CCN(CC(=O)Nc1c(C(=O)OC)[nH]c2ccccc12)c1ccc2c(c1)OCO2 | inconclusive [activator, single point] |
| Cc1ccc(Cc2nc(-c3ccncc3)no2)cc1 | inconclusive [activator, partial curve] |
| Cc1cc(C)cc(S(=O)(=O)c2cnc3ccccc3n2)c1 | inconclusive [activator, single point] |
| CC(C)C1Cc2[nH][nH]c(=O)c2C(c2ccc(Cl)cc2)O1 (stereo not drawn) | active: 20 µM |
| CCc1ccc(NC(=O)COc2ccc3c(c2)OCO3)cc1 | inconclusive [activator, partial curve] |
| Fc1cccc(-c2oncc2-c2nnnn2-c2ccc(Cl)cc2)c1 | active: 11.2 µM |
| COc1cc(OC)cc(C(=O)Nc2ccc(N3CCOCC3)cc2N2CCOCC2)c1 | inconclusive [activator, partial curve] |
| Cc1nc(-c2ccc(S(=O)(=O)Nc3ccc(OC(F)(F)F)cc3)cc2)co1 | inconclusive [activator, partial curve] |
| CCN1C(=O)[C@H]2[C@@H](c3ccc(C(F)(F)F)cc3)N[C@]3(CCCN(CC4CCCCC4)C3=O)[C@H]2C1=O | inconclusive [activator, single point] |
| CC(C)C(=O)Nc1c(C(=O)N2CCN(c3ccccc3F)CC2)oc2ccccc12 | inconclusive [activator, partial curve] |
| CSc1nc(-c2ccc(Cl)cc2)nn1C(=O)c1ccco1 | inactive |
| COCCn1c(C)cc(/C=C2/SC(=O)N(CC(=O)N3CCCC3)C2=O)c1C | inconclusive [activator, partial curve] |
| Cc1ccc(-c2nc3sc(CCNC(=O)c4ccco4)c(C)n3n2)cc1 | active: 20 µM |
| CCOc1ccc(OCCn2nnc3ccccc3c2=O)cc1 | inconclusive [activator, partial curve] |
| CCc1ccc(-c2ccc(C(=O)O)cc2)nc1 | active: 35.5 µM |
| COc1ccccc1NCc1nnc2n1CCCCC2 | inactive |
| COc1ccccc1CNC(=O)CCCN1C(=O)CCn2nc(-c3cn(C)c4ccccc34)cc21 | inconclusive [activator, partial curve, poor fit] |
| COCCn1c(SCC(N)=O)nc2c(c1=O)SC(C)C2 (stereo not drawn) | inconclusive [activator, partial curve, poor fit] |

| SMILES | Potency |
| --- | --- |
| CN(C)c1ccc(/C=N/NC(=S)NCc2ccccc2)cc1 | inconclusive [activator, full curve] |
| CCCc1cc(=O)oc2c(CNc3ccc(OCC)cc3)c(O)ccc12 | inconclusive [activator, single point] |
| Cc1ccc(C(=O)Nc2cc3cc(Cl)ccc3oc2=O)cc1 | inactive |
| CCOC(=O)CNC(=S)N(Cc1ccccc1F)C1CCCCC1 | inconclusive [activator, single point] |
| CN(C)C1(CNC(=O)c2cccc(S(=O)(=O)Nc3ccc(Br)cc3)c2)CCCCC1 | inactive |
| Fc1cc(F)c(F)c(SCn2cc(Br)cn2)c1F | inconclusive [activator, partial curve] |
| S=C(NCCCc1ccccc1)Nc1ccccc1Cl | inconclusive [activator, single point] |
| COc1ccc2oc(=O)c(C(=O)N3CCN(c4cc(Cl)ccc4Cl)CC3)cc2c1 | inconclusive [activator, single point] |
| COc1ccc(NC(=S)NC(=O)c2ccccc2)cn1 | inactive |
| O=C(NCc1cccs1)c1cc2c(s1)CCCC2 | inconclusive [activator, single point] |
| O=C(NCc1ccco1)c1nc(-c2ccc(F)cc2)no1 | inconclusive [activator, single point] |
| O=C1/C(=C/c2cccs2)CCC/C1=C\c1cccs1 | inactive |
| CCOC(=O)c1cc(S(=O)(=O)N2CCN(c3cc(Cl)ccc3C)CC2)[nH]n1 | inactive |
| O=C(c1c(F)cccc1F)N1CCC(n2nnc3cc(C(F)(F)F)ccc32)CC1 | inconclusive [activator, single point] |
| CCOC(=O)c1cc(=O)c2ccc(OCC(=O)Nc3ccccc3)cc2o1 | inactive |
| O=C(c1ccc(Cl)cc1)N1CCC(O)(CSc2ccc(Cl)cc2Cl)CC1 | inconclusive [activator, single point] |
| Cc1oc(-c2ccccc2Cl)nc1CS(=O)(=O)CC(=O)NC(C)CCc1ccccc1 (stereo not drawn) | inconclusive [activator, single point] |
| CC(C)NC(=S)N/N=C/c1cc(Br)ccc1O | inconclusive [activator, partial curve] |
| O=C(N/N=C/c1cccc(Oc2ccccc2)c1)c1cccc(Br)c1 | inconclusive [activator, single point] |
| Cc1ccc(-n2ncc3c(=O)[nH]c(SCC(=O)N4CC(=O)Nc5ccccc54)nc32)cc1 | inconclusive [activator, partial curve] |
| CCOC(=O)N1CCN(CC(O)COc2ccc(CC)cc2)CC1 (stereo not drawn) | inactive |
| O=C(CN1CCc2ccccc2C1)Nc1ccccc1C(F)(F)F | inactive |
| O=C(O)COc1ccc(/C=N/NC(=O)c2ccc(-c3csc(Nc4ccc(Cl)cc4)n3)cc2)cc1 | inactive |
| COc1ccccc1/C=C1\SC(=S)N(CCC(=O)NNC(=O)c2ccccc2O)C1=O | inconclusive [activator, partial curve, poor fit] |
| O=C(N/N=C/c1c[nH]c2ccccc12)c1cc(Br)ccc1O | inconclusive [activator, partial curve] |

| SMILES | Potency |
| --- | --- |
| Cc1cc(C)cc(OCC(=O)N2CCc3ccccc3C2)c1 | inconclusive [activator, partial curve] |
| O=[N+]([O-])c1ccc(Sc2cccc3cccnc23)c([N+](=O)[O-])c1 | inconclusive [activator, single point] |
| CCOc1ccc(N2CC(C(=O)Nc3nnc(Cc4ccc(OC)cc4)s3)CC2=O)cc1 (stereo not drawn) | inconclusive [activator, partial curve, poor fit] |
| O=C(Nc1cccc2cccnc12)c1cc(F)c(F)cc1Cl | inconclusive [activator, partial curve] |
| Cc1cccn2c(=O)c3cc(C#N)c(=O)n(Cc4cccnc4)c3nc12 | inconclusive [activator, full curve] |
| COc1ccccc1NS(=O)(=O)c1cc(NC(=O)c2ccc(NC(C)=O)cc2)ccc1N1CCOCC1 | inactive |
| O=C(Nc1nc2c(Cl)cccc2s1)C1CC1 | inactive |
| CCOc1cc(CNC2CCCC2)ccc1OCc1ccccc1Cl | inactive |
| COC(C/C=C/C(=O)COCc1ccccc1)OC | active: 12.6 µM |
| CSc1nnc(NC(=O)c2nc(S(=O)(=O)Cc3ccc(C)cc3)ncc2Cl)s1 | active: 11.2 µM |
| S=C(NCc1ccc(Cl)cc1)Nc1ccccc1Cl | inconclusive [activator, partial curve] |
| Cc1cccc(Cn2c(-c3cccs3)nc3ccccc32)c1 | inactive |
| CCOc1ccc(Cn2c(CNS(=O)(=O)c3cccs3)nc3cccnc32)cc1 | inactive |
| CCn1c(/C(C#N)=N/O)nc2ccccc21 | inactive |
| CCN1CCN(C(c2cccnc2)c2cc(Cl)c3cccnc3c2O)CC1 (stereo not drawn) | inconclusive [activator, single point] |
| Cc1c(Cc2ccccc2)c(=O)oc2c(C)c(OCC(=O)N3CCC(C(=O)O)CC3)ccc12 | inconclusive [activator, single point] |
| O=C(c1cc(COc2ccc(F)cc2F)on1)N1CCCC(c2ccccc2)C1 (stereo not drawn) | inconclusive [activator, single point] |
| COc1ccc(C(O)c2nc(-c3ccncc3)cs2)cc1 (stereo not drawn) | inconclusive [activator, partial curve] |
| CCn1nnc2cc(C(=O)Nc3ccc(C(=O)OC(C)C)cc3)ccc21 | active: 11.2 µM |
| O=C(CSCc1ccccc1)N1CCN(c2cccc(C(F)(F)F)c2)CC1 | inconclusive [activator, partial curve] |
| COc1ccc(OC)c(NC=C2C(=O)OC3(CCCCC3)OC2=O)c1 | inconclusive [activator, single point] |
| Cc1ccc(C)c2sc(N3CCN(C(=O)c4ccco4)CC3)nc12 | active: 11.2 µM |
| CCOc1ncccc1C(=O)OCC(=O)c1c[nH]c2ccccc12 | inconclusive [activator, partial curve] |
